The chains are these.
B1: GPR68, Q15743 (parent)
chain: MGNITADNSSMSCTIDHTIHQTLAPVVYVTVLVVGFPANCLSLYFGYLQIKARNELGVYLCNLTVADLFYICSLPFWLQYVLQHDNWSHGDLSCQVCGILLYENIYISVGFLCCISVDRYLAVAHPFRFHQFRTLKAAVGVSVVIWAKELLTSIYFLMHEEVIEDENQHRVCFEHYPIQAWQRAINYYRFLVGFLFPICLLLASYQGILRAVRRSHGTQKSRKDQIQRLVLSTVVIFLACFLPYHVLLLVRSVWEASCDFAKGVFNAYHFSLLLTSFNCVADPVLYCFVSETTHRDLARLRGACLAFLTCSRTGRAREAYPLGAPEASGKSGAQGEEPELLTKLHPAFQTPNSPGSGGFPTGRLA

In data set [1] the parent is B1. Description: cAMP reporter score (Enrich2 score, wild type = 0); higher = more signal; HEK293T, FACS bins.
The variants in data set [2] derive from B1. Description: surface expression score (Enrich2 score, wild type = 0); higher = more signal; HEK293T, FACS bins.

The values that follow come from the GPR68 mutational scans of Howard et al. (2025).

The least precise scores are not listed. Not listed are two conditions whose scores span a narrow range. Names with del lack the residues named; names with ins carry added residues between the positions named. For some assays here: The data file names ogerin without a concentration.

Consider S215I, for which the cAMP reporter score was -0.981 in data set [1] (pH 5.5); -0.265 in data set [1] (pH 6); -1.22 in data set [1] (pH 6, modulator: ogerin); -1.42 in data set [1] (pH 6.5, modulator: ogerin). Besides, the surface expression score in data set [2] is -0.736.

With S215L, the cAMP reporter score in data set [1] (pH 5.5) is -0.214; in data set [1] (pH 6, modulator: ogerin) it was -1.44; in data set [1] (pH 6.5, modulator: ogerin), -1.66. Moreover, the surface expression score in data set [2] was 0.551.

As for S215D, the cAMP reporter score was -0.513 in data set [1] (pH 5.5); -0.649 in data set [1] (pH 6); -0.989 in data set [1] (pH 6, modulator: ogerin); -0.059 in data set [1] (pH 6.5, modulator: ogerin). For the same variant, in data set [2], the surface expression score worked out at 0.734.

S215H: the cAMP reporter score in data set [1] (pH 5.5) was -0.759; in data set [1] (pH 6) it was -0.368; in data set [1] (pH 6, modulator: ogerin) it was -0.709; in data set [1] (pH 6.5, modulator: ogerin) it was -0.092. Moreover, the surface expression score in data set [2] amounted to 0.811.

For S215G, the cAMP reporter score was -1.17 in data set [1] (pH 5.5); -0.966 in data set [1] (pH 6); -0.724 in data set [1] (pH 6.5, modulator: ogerin). Also, in data set [2], the surface expression score came out at 1.15.

Take S215K: the cAMP reporter score in data set [1] (pH 5.5) was -1.5; in data set [1] (pH 6) it was -1.19; in data set [1] (pH 6, modulator: ogerin) it was -1.59; in data set [1] (pH 6.5, modulator: ogerin), -1.77. The surface expression score in data set [2] stood at 1.11.

Turning to S215_H216insGSG, the cAMP reporter score in data set [1] (pH 5.5) was -1.03; in data set [1] (pH 6), -0.926; in data set [1] (pH 6, modulator: ogerin) it was -1.25; in data set [1] (pH 6.5, modulator: ogerin) it was -1.23. In data set [2], the surface expression score worked out at 0.727.

G207L: the cAMP reporter score in data set [1] (pH 5.5) was 0.614; in data set [1] (pH 6), -0.806; in data set [1] (pH 6, modulator: ogerin) it was 0.172; in data set [1] (pH 6.5, modulator: ogerin), -0.591. For the same variant, the surface expression score in data set [2] was -0.788.

With G207F, the cAMP reporter score in data set [1] (pH 5.5) was -0.048; in data set [1] (pH 6) it was -1.17; in data set [1] (pH 6, modulator: ogerin), -0.928; in data set [1] (pH 6.5, modulator: ogerin) it was -0.782.

As for G207N, the cAMP reporter score in data set [1] (pH 5.5) is -1.47; in data set [1] (pH 6), -0.484; in data set [1] (pH 6, modulator: ogerin), -0.062; in data set [1] (pH 6.5, modulator: ogerin), 0.73. For the same variant, the surface expression score in data set [2] was -1.12.

For the variant G207T, the cAMP reporter score was -0.809 in data set [1] (pH 5.5); -0.455 in data set [1] (pH 6); -1.72 in data set [1] (pH 6, modulator: ogerin); -1.19 in data set [1] (pH 6.5, modulator: ogerin). The surface expression score in data set [2] is -1.64.

With G207Y, the cAMP reporter score in data set [1] (pH 5.5) is 0.198; in data set [1] (pH 6) it was -0.998; in data set [1] (pH 6, modulator: ogerin) it was -0.495; in data set [1] (pH 6.5, modulator: ogerin), -0.865. In addition, the surface expression score in data set [2] is -1.34.

With G207D, the cAMP reporter score in data set [1] (pH 5.5) was -1.46; in data set [1] (pH 6), -0.91; in data set [1] (pH 6, modulator: ogerin), -1.8; in data set [1] (pH 6.5, modulator: ogerin), -1.86. Besides, the surface expression score in data set [2] is -2.28.

G207H: the cAMP reporter score in data set [1] (pH 5.5) was -0.525; in data set [1] (pH 6), -0.757; in data set [1] (pH 6, modulator: ogerin), -0.762; in data set [1] (pH 6.5, modulator: ogerin), -2.09. Further, in data set [2], the surface expression score was -1.42.

As for G207P, the cAMP reporter score in data set [1] (pH 5.5) is -0.061; in data set [1] (pH 6), 0.284; in data set [1] (pH 6, modulator: ogerin), -0.742; in data set [1] (pH 6.5, modulator: ogerin), -0.806. Besides, the surface expression score in data set [2] was -2.76.

With G207V, the cAMP reporter score in data set [1] (pH 5.5) was -1.96; in data set [1] (pH 6), -1.26; in data set [1] (pH 6, modulator: ogerin), -1.65; in data set [1] (pH 6.5, modulator: ogerin) it was -1.27. Moreover, in data set [2], the surface expression score was -1.74.

In the case of G207E, the cAMP reporter score is -0.436 in data set [1] (pH 5.5); -0.912 in data set [1] (pH 6); -0.873 in data set [1] (pH 6, modulator: ogerin); -0.754 in data set [1] (pH 6.5, modulator: ogerin). In addition, in data set [2], the surface expression score was -1.25.

In the case of G207C, the cAMP reporter score in data set [1] (pH 5.5) is 0.227; in data set [1] (pH 6), -1.46; in data set [1] (pH 6, modulator: ogerin), -0.641; in data set [1] (pH 6.5, modulator: ogerin) it was -0.696. Besides, the surface expression score in data set [2] is -1.23.

Turning to G207I, the cAMP reporter score in data set [1] (pH 5.5) was -1.13; in data set [1] (pH 6), -0.786; in data set [1] (pH 6.5, modulator: ogerin) it was -0.756. Also, in data set [2], the surface expression score was -1.91.

With G207R, the cAMP reporter score in data set [1] (pH 5.5) was -0.325; in data set [1] (pH 6, modulator: ogerin), -0.778; in data set [1] (pH 6.5, modulator: ogerin), -1.44. The surface expression score in data set [2] is -1.67.

Regarding G207S, the cAMP reporter score in data set [1] (pH 5.5) is 0.654; in data set [1] (pH 6), -0.342; in data set [1] (pH 6, modulator: ogerin), 0.812; in data set [1] (pH 6.5, modulator: ogerin), -0.188. The surface expression score in data set [2] is -1.5.

For G207M, the cAMP reporter score in data set [1] (pH 5.5) was -0.853; in data set [1] (pH 6), -1.12; in data set [1] (pH 6, modulator: ogerin) it was -1.22; in data set [1] (pH 6.5, modulator: ogerin) it was -1.22. Moreover, the surface expression score in data set [2] was -1.24.

Regarding G207K, the cAMP reporter score was -0.691 in data set [1] (pH 5.5); -1.27 in data set [1] (pH 6); -0.597 in data set [1] (pH 6, modulator: ogerin); -1.31 in data set [1] (pH 6.5, modulator: ogerin). The surface expression score in data set [2] is -1.07.

In the case of G207A, the cAMP reporter score in data set [1] (pH 5.5) turned out to be 1.21; in data set [1] (pH 6), 0.129; in data set [1] (pH 6, modulator: ogerin), 1.14; in data set [1] (pH 6.5, modulator: ogerin) it was 0.009. The surface expression score in data set [2] was 0.012.

Turning to G207Q, the cAMP reporter score in data set [1] (pH 5.5) came to 1.82; in data set [1] (pH 6), 0.104; in data set [1] (pH 6, modulator: ogerin), 1.34; in data set [1] (pH 6.5, modulator: ogerin) it was 0.999. Further, the surface expression score in data set [2] is -0.731.

For L201_L202insGS, the cAMP reporter score is -0.372 in data set [1] (pH 5.5); -1.69 in data set [1] (pH 6); -1.19 in data set [1] (pH 6.5, modulator: ogerin). The surface expression score in data set [2] was -2.35.

As to A211_V212del, the cAMP reporter score in data set [1] (pH 5.5) was -1.69; in data set [1] (pH 6), -0.692; in data set [1] (pH 6, modulator: ogerin), -1.32; in data set [1] (pH 6.5, modulator: ogerin), -0.859. Moreover, the surface expression score in data set [2] is -0.336.

In the case of S215_H216del, the cAMP reporter score was -1.47 in data set [1] (pH 5.5); -1.24 in data set [1] (pH 6); -1.57 in data set [1] (pH 6, modulator: ogerin); -0.747 in data set [1] (pH 6.5, modulator: ogerin). Further, the surface expression score in data set [2] is -0.328.

For the variant T218_K220del, the cAMP reporter score in data set [1] (pH 5.5) was -0.266; in data set [1] (pH 6), -1.22; in data set [1] (pH 6, modulator: ogerin), -1.52; in data set [1] (pH 6.5, modulator: ogerin), -0.734. In data set [2], the surface expression score was found to be 0.385.

As to G217_T218del, the cAMP reporter score in data set [1] (pH 5.5) was -1.55; in data set [1] (pH 6) it was -1.65; in data set [1] (pH 6, modulator: ogerin), -1.4; in data set [1] (pH 6.5, modulator: ogerin), -1.72. Besides, the surface expression score in data set [2] is -0.609.

Regarding G217_Q219del, the cAMP reporter score in data set [1] (pH 5.5) is -1.05; in data set [1] (pH 6), -1.15; in data set [1] (pH 6, modulator: ogerin), -2.65; in data set [1] (pH 6.5, modulator: ogerin) it was -0.512. The surface expression score in data set [2] was -0.681.
